Measured values reported in PMC6919601, “Identification of Plasmodium dipeptidyl aminopeptidase allosteric inhibitors by high throughput screening” (PLoS ONE, 2019).
The whole screen tested about 110,000 compounds, of which about 230 (0.21%) showed an effect of 50% or more. The list shows a part of the results.

biological target: DPAP1 (Plasmodium falciparum, UniProt Q8IIJ9); experiment: primary screen, percent inhibition; read by cleavage of a fluorogenic dipeptide substrate; higher = more effect of the substance; parameters: species or system P. falciparum D10 trophozoite lysates; single well
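Also: 30 min substrate incubation versus DMSO and 10 µM JCP410 controls.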

Sequence of DPAP1 (Q8IIJ9 whole entry, looked up): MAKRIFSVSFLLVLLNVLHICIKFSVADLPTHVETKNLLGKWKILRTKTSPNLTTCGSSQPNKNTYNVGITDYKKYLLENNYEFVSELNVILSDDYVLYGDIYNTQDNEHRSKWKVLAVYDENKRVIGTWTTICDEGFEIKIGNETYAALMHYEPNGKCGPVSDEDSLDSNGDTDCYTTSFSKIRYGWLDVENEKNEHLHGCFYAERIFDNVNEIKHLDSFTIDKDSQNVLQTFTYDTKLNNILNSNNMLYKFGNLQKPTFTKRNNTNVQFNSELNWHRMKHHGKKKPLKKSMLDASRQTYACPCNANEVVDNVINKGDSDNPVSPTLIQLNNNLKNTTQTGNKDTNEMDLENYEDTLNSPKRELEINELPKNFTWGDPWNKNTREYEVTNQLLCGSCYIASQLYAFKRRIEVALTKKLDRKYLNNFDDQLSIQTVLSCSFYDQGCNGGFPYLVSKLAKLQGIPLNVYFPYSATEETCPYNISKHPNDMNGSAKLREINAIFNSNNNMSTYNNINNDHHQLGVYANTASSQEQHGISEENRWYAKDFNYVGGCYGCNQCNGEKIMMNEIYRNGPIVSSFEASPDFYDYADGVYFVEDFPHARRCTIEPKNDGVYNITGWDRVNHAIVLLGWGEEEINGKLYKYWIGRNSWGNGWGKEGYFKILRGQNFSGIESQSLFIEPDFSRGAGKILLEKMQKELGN

| SMILES | % Inhibition @ 10 uM [%] |
| --- | --- |
| Cc1ccc(-c2nnc3n2NC(=O)CS3)cc1 | 7.5 |
| COCCNC(=O)c1cn(CCOC)c(=O)c2c1c1ccccc1n2C | -7.85 |
| Cc1cc(C)cc(OC(C)C(=O)N(Cc2ccc(Cl)cc2)C2CCS(=O)(=O)C2)c1 (stereo not drawn) | -8.79 |
| Cc1ccnc(N2C(=O)c3ccc(C45CC6CC(CC(C6)C4)C5)cc3C2=O)c1 | 1.72 |
| C/C(=N\OCC(=O)Nc1nc2ccccc2s1)c1cccs1 | -8.55 |
| CCCCNC(=O)c1cccc(Br)c1 | -3.55 |
| COc1cccc(C2C3=C(O)CCCC3=NC(C)=C2C(=O)Nc2ccccc2C)c1OC (stereo not drawn) | 2.38 |
| Cc1ccc(-c2[nH]nc3c2C2(C(=O)Nc4ccc(F)cc42)C(C#N)=C(N)O3)cc1 (stereo not drawn) | -2.83 |
| COc1ccc2c(Sc3ccc(Cl)cc3)c(C(=O)NCCN3CCOCC3)[nH]c2c1 | -3.1 |
| CCCOC(=O)C1=C(C)N(C)C(=O)NC1c1cc(OC)ccc1OC (stereo not drawn) | -5.92 |
| Cc1cccc(CC(=O)NCCSc2c[nH]c3ccccc23)c1 | -2.49 |
| C=CCOc1ccc(C2C3=C(CC(C)(C)CC3=O)OC3=C2C(=O)CC(C)(C)C3)cc1 | -1.78 |
| CCOc1ccc(-c2cc(NC(=O)c3cccc(F)c3)c(C(=O)OC)s2)cc1 | -7.97 |
| CCOc1cc(/C=C2\C(=N)N3N=C(S(C)(=O)=O)SC3=NC2=O)ccc1OCc1ccccc1 | -3.39 |
| COc1cccc(C(=O)c2sc3nc(C)c(C)c(C)c3c2N)c1 | 4.28 |
| COCCNS(=O)(=O)c1c[nH]c(C(=O)OC)c1 | 4.14 |
| COc1ccc(Cn2c(SCC(=O)C(C)(C)C)nc3sc(C(=O)N(C)C)c(C)c3c2=O)cc1 | 1.24 |
| C=CCn1c(C)cs/c1=N\c1ccc(C(=O)O)cc1 | 4 |
| N#Cc1cccc(NC(=O)c2sc3nc4c(c(C(F)(F)F)c3c2N)CCC4)c1 | 25.2 |
| COc1ccc(CC/N=C/C2=C(O)c3sccc3N(Cc3ccc(C)cc3)S2(=O)=O)cc1OC | -0.909 |
| O=C(O)c1csc2c1CCCC2=O | 4.66 |
| COc1ccc(-n2c(C)cc(/C=C3/C(=N)N4C(=NC3=O)SN=C4S(C)(=O)=O)c2C)cc1Cl | 6.59 |
| Cc1nc(-c2ccccc2)sc1C(N)=O | 24.4 |
| O=C(C1COc2cc(S(=O)(=O)NCCCc3ccccc3)ccc2O1)N1CCCCC1 (stereo not drawn) | -2.29 |
| CCOC(=O)C1=C(C)N=c2s/c(=C\c3ccc(O)cc3)c(=O)n2C1c1ccccc1Cl (stereo not drawn) | 7.55 |

| SMILES | % Inhibition @ 10 uM [%] |
| --- | --- |
| CCCCOc1ccc(CC2CCC(=O)NC2=O)cc1 (stereo not drawn) | 2.94 |
| CCC(C)NC(=O)CS(=O)Cc1nc(-c2cccc(C)c2)oc1C (stereo not drawn) | -1.05 |
| Cc1sc(NC(=O)c2ccccc2)c(C(c2ccncc2)N2CCN(C)CC2)c1C (stereo not drawn) | 2.64 |
| CC(C)(C)C1(C)OC(=O)C(=Cc2cccc(O)c2)C(=O)O1 (stereo not drawn) | 0.275 |
| CCOC(=O)c1c(N)sc(C(=O)OC(C)(C)C)c1C | 14.2 |
| CN1CCC(NCCc2ccc(F)cc2)CC1 | -5.11 |
| Cc1cc(C)nc(NS(=O)(=O)c2ccc(NC(=O)Cc3ccc(Cl)cc3)cc2)n1 | 3.53 |
| OCCn1c(-c2ccccc2)cs/c1=N\c1ccccc1 | 5.73 |
| O=C(C1=C(O)C(=O)N(CCCN2CCOCC2)C1c1cccs1)c1cc2ccccc2o1 (stereo not drawn) | 13.5 |
| CCOc1cc2c(cc1OCC)C1C(C(=O)Nc3cccnc3)c3ccccc3C(=O)N1CC2 (stereo not drawn) | 4.05 |
| CCN(CC)c1ccc(C(O)c2nc3ccccc3n2CC)cc1 (stereo not drawn) | 1.72 |
| CC(Nc1nc(N2CCN(C(=O)C3CCCC3)CC2)nc2ccccc12)c1ccccc1 (stereo not drawn) | -2.05 |
| Cc1cccc2cc3ccccc3nc12 | 2.32 |
| O=S(=O)(c1cccc(C(F)(F)F)c1)N1CCNCC1 | -4.19 |
| Cc1nc2ccc(/C=C/C(=O)O)cc2s1 | 1.54 |
| COc1ccc(Nc2nc(-c3ccccc3)c(Oc3ccc(Cl)cc3)s2)cc1 | -2.02 |
| CC(C)CC(NC(=O)c1cccc(Br)c1)C(=O)NCC#N (stereo not drawn) | 3.19 |
| CC12COC3(C(=O)N4CCCCCC4)CC1CCC32C (stereo not drawn) | 1.02 |
| O=C1C(NS(=O)(=O)c2ccccc2)=C/C(=N\S(=O)(=O)c2ccc(Cl)cc2)c2ccccc21 | 3.15 |
| O=C(COc1ccc2ccccc2c1)Nc1c2c(nn1-c1ccc(Cl)cc1)CS(=O)(=O)C2 | -3.83 |
| CCCCNC(=O)C1CCN(C(=O)c2c(C)nn(-c3ccccc3)c2-n2cccc2)CC1 | 3.4 |
| CCN(CC)C(=O)Cn1cc(SCC(=O)NCc2ccc(F)cc2)c2ccccc21 | 3.25 |
| c1cc(-c2ncnn2-c2ccncc2)ccn1 | 1.57 |
| COC(=O)Nc1ccc2c(c1)N(C(=O)CCN1CCN3CCCC3C1)c1ccccc1CC2 (stereo not drawn) | 6.15 |
| CCOC(=O)N1CCN(S(=O)(=O)/C=C/c2ccccc2)CC1 | 21.7 |

| SMILES | % Inhibition @ 10 uM [%] |
| --- | --- |
| CC1(C)CC(=O)C2=C(C1)N(c1cccc(C(F)(F)F)c1)C(N)=C(C#N)C2c1ccsc1 (stereo not drawn) | -1.44 |
| Fc1ccc(CN2CCOCC2)cc1Br | -4.04 |
| Cc1cc(O)nc(NC(=O)Cc2ccccc2)n1 | 0.755 |
| COc1ccccc1Sc1ccccc1CN(C)C | -1.06 |
| CC(NC(=O)c1cccc(N)c1)c1ccccc1 (stereo not drawn) | 7.55 |
| c1cc(Nc2ncnc3sc4c(c23)CCC4)ccn1 | 2.62 |
| CCOc1ccc(N2CCc3c2nc2ccccc2c3/N=C2/CCCN2C)cc1 | 7.68 |
| CCOc1ccc(C2C(C(=O)c3ccc(F)cc3)=C(O)C(=O)N2Cc2cccnc2)cc1OC (stereo not drawn) | 3.8 |
| COc1ccc(Br)cc1CNC(=O)Cn1nc(C)n2c(cc3cc(C)ccc32)c1=O | 0.0198 |
| CCC(CC)C(=O)Nc1ccc(OC)cc1OC | 4.49 |
| COCCN1C(=O)C(CC(=O)Nc2ccc(F)cc2)S/C1=N\c1ccccc1 (stereo not drawn) | -5.1 |
| CCCCCC(=O)Nc1ncc2c(n1)CC(c1ccc(C(C)(C)C)cc1)CC2=O (stereo not drawn) | -6.78 |
| O=C(O)COc1ccc2c(=O)c(Oc3ccc(Cl)cc3)coc2c1 | -6.37 |
| CCOC(=O)c1c(N)n(CCCO)c2nc3ccccc3nc12 | -4.01 |
| O=C(CCN1CCCCC1)Nc1c2c(cc3c1CCC3)CCC2 | -6.68 |
| c1cc2c(cc1C1OCC3(CO1)COC(c1ccc4c(c1)OCO4)OC3)OCO2 (stereo not drawn) | -4.26 |
| CCOC(=O)c1sc2nc3c(c(-c4ccc(Cl)cc4)c2c1N)CCC3 | -0.458 |
| COc1ccc(C2CC3=NC(C)=C(C(=O)OC(C)C)C(c4cccnc4)C3=C(O)C2)cc1 (stereo not drawn) | -3.69 |
| c1coc(CNc2ccc3c(c2)OCO3)c1 | 1.83 |
| COc1cc2nc(SCc3ccc(C#N)cc3)n3nc(CCn4nc(C)cc4C)nc3c2cc1OC | -6.06 |
| CCc1nnc(NC(=O)c2ccc3c(c2)CC(c2ccccc2)OC3=O)s1 (stereo not drawn) | 0.558 |
| O=c1/c(=C/c2ccc(-c3ccc(Cl)cc3Cl)o2)sc2nc3ccccc3n12 | 1.88 |
| Cc1nnc(N2CCC(C(=O)N3CCC(C(N)=O)CC3)CC2)c2nn(-c3ccccc3)c(C)c12 | 2.92 |
| CC(C)COc1ccc2c(c1)c1c3n2CCNC3CCC1 (stereo not drawn) | -1.96 |
| Cc1sc2nc(N)c(C#N)c(-c3ccccc3)c2c1C | -4.72 |

| SMILES | % Inhibition @ 10 uM [%] |
| --- | --- |
| CCOc1ccc(Cc2onc3c2C(=O)CC(c2ccccc2)C3)cc1OCC (stereo not drawn) | 2.57 |
| CCCC1CCC(c2ccc(C(=O)N3CCOCC3)cc2)CC1 (stereo not drawn) | 7.56 |
| Cc1cc(OCC(=O)N2CCOCC2)cc(C)c1Cl | 3.66 |
| Cc1ccc(S(=O)(=O)n2nc(C#N)c(C#N)c2N)cc1 | 3.59 |
| CCC(=O)Nc1ccc(S(=O)(=O)N(C)Cc2ccccc2)cc1 | 2.79 |
| CCN(CC)CCN(C(=O)c1ccc(C(C)=O)cc1)c1nc2c(C)cccc2s1 | 0.968 |
| Cn1c(N2CCC(Cc3ccccc3)CC2)nc2c1c(=O)n(Cc1ccc(Cl)cc1)c(=O)n2C | 4.74 |
| CCCc1cc(O)nc(/N=C(\N)Nc2ccc3c(c2)OCCO3)n1 | -1.38 |
| Cc1ccc(NCN2C(=O)C3C4CCC(C4)C3C2=O)cc1Cl (stereo not drawn) | 0.536 |
| CCCN1CCN(CC2=C(C(=O)OCC)C(c3cccs3)NC(=O)N2)CC1 (stereo not drawn) | -4.63 |
| CC(C)c1ccc(/C=C/C(=O)NCc2ccccc2)cc1 | 5.29 |
| COc1cccc(-n2nnc(S(=O)(=O)c3ccc(Cl)cc3)c2C)c1 | -3.37 |
| CC1CC(C)CN(CCCNC(=O)c2cc3c(O)nc4ccccc4c3s2)C1 (stereo not drawn) | -2.29 |
| Cc1cc(C)n(S(=O)(=O)c2c(C)c(C)cc(C)c2C)n1 | -0.902 |
| CCOc1ccccc1C1CC(=O)NC(SCC(N)=O)=C1C#N (stereo not drawn) | -2.89 |
| Cn1c(O)c(/C=N/c2cccc(Cl)c2)c2ccccc21 | 0.472 |
| CCOC(=O)C1=C(c2ccccc2)NC(=O)NC1c1ccc(CC)cc1 (stereo not drawn) | 0.0538 |
| CCc1ccc(NC(=O)c2ccc(OC)cc2)cc1 | -5.32 |
| Nc1c(C(=O)Nc2ccc(Cl)c(C(=O)O)c2)sc2nc3c(cc12)CCCC3 | 6.37 |
| CC(c1ccccc1)N1C(=O)NC(=O)/C(=C/c2ccc(SC3CCCCC3)o2)C1=O (stereo not drawn) | 0.458 |
| C=CCO/C(O)=C1\C(C)=Nc2nnnn2C1c1ccc(Br)cc1 (stereo not drawn) | -5.19 |
| COc1cc(C(=O)O)ccc1OCCC(C)C | -3.01 |
| COc1ccc(S(=O)(=O)N(C)CC(=O)NCc2ccc(C)cc2)cc1 | -0.48 |
| Cn1ncc2c(NCCCc3ccccc3)ncnc21 | 3.83 |
